# Assay results taken from article PMC4336329 (PLoS ONE, 2015).
# About 2,200 (0.71%) of roughly 310,000 compounds showed an effect of 50% or more. The effect is printed as a negative number. The list shows a part of the results.
# Biological target: human ether-à-go-go-related gene (hERG) potassium channel (human, UniProt Q12809)
# Experiment: primary screen, population patch clamp on CHO cells stably expressing hERG
# Chain of human ether-à-go-go-related gene (hERG) potassium channel (Q12809 whole entry, looked up): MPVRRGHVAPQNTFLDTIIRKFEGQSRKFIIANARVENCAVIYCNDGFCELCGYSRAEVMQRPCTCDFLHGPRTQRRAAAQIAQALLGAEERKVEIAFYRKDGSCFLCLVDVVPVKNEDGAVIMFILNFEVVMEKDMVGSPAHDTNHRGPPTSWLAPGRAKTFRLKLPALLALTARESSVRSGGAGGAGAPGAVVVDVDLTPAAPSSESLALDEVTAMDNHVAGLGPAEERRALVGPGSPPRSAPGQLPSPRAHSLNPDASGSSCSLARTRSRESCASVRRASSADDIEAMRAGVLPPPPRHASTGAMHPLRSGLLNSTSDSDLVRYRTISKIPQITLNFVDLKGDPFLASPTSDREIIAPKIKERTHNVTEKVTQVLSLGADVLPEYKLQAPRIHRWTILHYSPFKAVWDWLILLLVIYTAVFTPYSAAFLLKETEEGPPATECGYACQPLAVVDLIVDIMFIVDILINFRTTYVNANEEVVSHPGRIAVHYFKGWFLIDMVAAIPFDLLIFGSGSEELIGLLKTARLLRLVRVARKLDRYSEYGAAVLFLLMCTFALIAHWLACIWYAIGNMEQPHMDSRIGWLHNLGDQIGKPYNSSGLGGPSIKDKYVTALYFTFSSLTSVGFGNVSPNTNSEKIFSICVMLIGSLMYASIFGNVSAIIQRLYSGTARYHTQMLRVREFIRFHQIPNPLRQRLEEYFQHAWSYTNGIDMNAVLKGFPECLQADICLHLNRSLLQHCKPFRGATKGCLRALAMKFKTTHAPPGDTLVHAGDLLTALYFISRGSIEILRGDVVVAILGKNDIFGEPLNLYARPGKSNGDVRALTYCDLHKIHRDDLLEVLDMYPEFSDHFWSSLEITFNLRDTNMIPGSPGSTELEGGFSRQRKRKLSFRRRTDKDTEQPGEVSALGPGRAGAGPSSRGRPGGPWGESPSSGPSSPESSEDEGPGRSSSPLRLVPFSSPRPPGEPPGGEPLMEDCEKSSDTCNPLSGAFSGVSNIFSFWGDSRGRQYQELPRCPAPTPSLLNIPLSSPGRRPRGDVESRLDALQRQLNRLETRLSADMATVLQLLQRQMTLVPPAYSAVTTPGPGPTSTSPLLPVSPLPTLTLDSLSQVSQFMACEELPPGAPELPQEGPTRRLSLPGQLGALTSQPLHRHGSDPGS
row,SMILES,"hERG current change (%, negative = inhibition) at 1uM [%]"
1,COc1ccc(CN2CCNC(=O)C2CC(=O)NCC2CCOCC2)c(C)c1C (stereo not shown),7.09
2,O=c1[nH]c2c(Br)cnc([N+](=O)[O-])c2[nH]1,4.75
3,COc1ccccc1NS(=O)(=O)c1ccc(Cl)c(NC(=S)NC(=O)C2CCCC2)c1,3.34
4,CCN(CC)c1ccc(NC(=O)C2CCCN(S(=O)(=O)c3cnc[nH]3)C2)c(C)c1 (stereo not shown),4.3
5,Cc1ccc(C(C(=O)NC2CCCC2)N(Cc2ccc3c(c2)OCO3)C(=O)c2snc(C(N)=O)c2N)cc1 (stereo not shown),11.7
6,COc1cc(CCC(=O)NC2(C)CCS(=O)(=O)C2)cc(OC)c1OC (stereo not shown),-2
7,CCOCCCn1c(SCC(=O)Nc2cccc(S(=O)(=O)NC3=NCCCCC3)c2)nc2ccccc2c1=O,-3.2
8,CC(=O)Nc1ccccc1/C=C/c1ccc2c(C)ccc(O)c2n1,12.2
9,Fc1cnc(N2CCN(c3ccccc3)CC2)nc1N1CCN(c2ccccc2)CC1,-11.2
10,O=C1c2ccccc2C2NC(=O)C3(CCCCC3)N12 (stereo not shown),8.37
11,Cc1ccc(NC(=O)CCC(=O)Nc2ccc(C)cc2)cc1,15.4
12,CCOc1ccc(C(C)C)cc1S(=O)(=O)n1nc(C)cc1C,12.7
13,Oc1ccccc1CNc1nc2ccccc2n1CCN1CCCCC1,4.76
14,Cc1ccc(S(=O)(=O)/N=C(\CSC(N)=O)Nc2ccccc2)cc1,13.7
15,O=C(Nc1ccccc1C(F)(F)F)c1c(F)cccc1Cl,6.5
16,CCOc1ccc(Nc2nc(N)nc(CSC(=S)N3CCN(c4ccccc4)CC3)n2)cc1,12
17,CCCCCC(=O)N(Cc1ccccc1)c1c(N)n(CCOC)c(=O)[nH]c1=O,15.2
18,CCCn1c(SCc2ccc(C(=O)OC)o2)nc2ccccc2c1=O,-0.262
19,CCc1cc(Br)ccc1NC(=O)C1CCCO1 (stereo not shown),-7.42
20,COc1ccccc1N1C(=NC(=O)CCc2ccccc2)SC2CS(=O)(=O)CC21 (stereo not shown),9.33
21,O=C(Nc1ccc(S(=O)(=O)Nc2ccccn2)cc1)c1ccc(Cl)cc1Cl,13.4
22,Cc1ccc(CS(=O)Cc2ccc(C(=O)N3CCN(c4ccc(F)cc4)CC3)o2)cc1 (stereo not shown),-4.85

row,SMILES,"hERG current change (%, negative = inhibition) at 1uM [%]"
1,CC(=NCc1ccccc1)C1=C(O)COC1=O,7.04
2,CCCN1CCN(CCCNC(=O)c2cc3c(=O)[nH]c4ccc(C)cc4c3s2)CC1,-18.8
3,O=C(NCCCN=C1NS(=O)(=O)c2ccccc21)c1ccccc1Cl,11
4,COc1ccc(C/C(C)=N\NC(=O)c2cn(C)c3ccccc23)cc1OC,15.5
5,COc1ccccc1NC(=O)Cn1nnc(C(=O)NCc2cccs2)c1N,5.64
6,CCn1c(CNC(=O)c2ccccc2F)nnc1SCCOc1ccccc1,-2.89
7,O=C(O)c1cc(-c2ccccc2)nn1CC1CC(c2cccnc2)=NO1 (stereo not shown),8.49
8,Cc1ccc(NC(=O)Nc2cccc3ccccc23)cc1,15
9,COc1ccccc1CNC(=O)COC(=O)CSc1ccc(Cl)cc1,-1.4
10,CC(C)COc1ccc(C(=O)Nc2ccc(NC(=O)c3ccco3)cc2)cc1,13.1
11,CCOC(=O)c1c(C2CC2)csc1NC(=O)COC(=O)CCS(=O)(=O)c1ccc(C)cc1,10.1
12,OCCOCCn1c(C2CCCN2c2nc(-c3ccc(F)cc3)cs2)nc2cc(Cl)c(Cl)cc21 (stereo not shown),-0.144
13,O=C1c2ccsc2SCCN1Cc1ccc(Cl)cc1Cl,7.37
14,COc1ccc(C(CC(=O)Nc2ccccc2OC)n2cccc2)cc1 (stereo not shown),2.89
15,Cc1ccc(C(=O)N/N=C\C=C\c2ccccc2[N+](=O)[O-])cn1,7.61
16,C(=C\c1ccccc1)/C=N/Nc1nncc(-c2ccccc2)n1,4.92
17,Cc1nnc(C)n1/N=C/c1ccc(C(C)C)cc1,0.0637
18,Cc1occc1C(=O)N/N=C/c1ccc(Cl)c([N+](=O)[O-])c1,3.83
19,CC(=O)N1CCC(=NNC(=O)CSc2cc(C)c(Br)cc2C)CC1,12.3
20,O=C1/C(=C/c2ccc(O)c([N+](=O)[O-])c2)SC(=S)N1Cc1ccccc1,6.84
21,C=Cn1cc[n+](CC(=O)c2ccc(Cl)c(Cl)c2)c1.[Br-],11.8
22,CNC(=O)CC1C(=O)N(c2ccc(Cl)cc2)C(=S)N1CCc1ccc(OC)c(OC)c1 (stereo not shown),10.1

row,SMILES,"hERG current change (%, negative = inhibition) at 1uM [%]"
1,CCCCCn1c(=O)c(C(=O)Nc2ccccc2N)c(O)c2ccccc21,15.3
2,Cc1cc(C)cc(NC(=O)CSc2ncc(S(=O)(=O)c3ccccc3)c(=O)[nH]2)c1,11.1
3,CCN1CCN(Cc2cc(=O)oc3cc4c(cc23)CCC4)CC1,-6.07
4,CC(C)C[C@H](NC(=O)c1[nH]cnc1C(=O)N[C@@H](Cc1ccccc1)C(=O)OC(C)(C)C)C(=O)OCc1ccccc1,9.61
5,Oc1c(Br)cc(Br)cc1/C=N/Nc1ccc(Cl)nn1,16.7
6,Cc1cc(C)n2c(SCC(=O)N(CC(C)C)c3c(N)n(CC(C)C)c(=O)[nH]c3=O)nnc2n1,9.86
7,CCN(C(=O)CSc1nc(-c2cccs2)nc2ccccc12)C1CCS(=O)(=O)C1 (stereo not shown),-78.4
8,CCOC(=O)c1c(NC(=O)c2c(-c3ccccc3)noc2C)sc(C)c1-c1ccccc1,-13
9,COc1ccc(N2CS(=O)CC2=O)cc1 (stereo not shown),-1.75
10,Cc1ccc(-c2noc(CSc3nnc(-c4cccs4)n3C)n2)cc1,15.7
11,CCOc1ccccc1C1CC(c2ccc(F)cc2)Nc2nc(N)nn21 (stereo not shown),-12.1
12,CCOC(=O)c1c(NC(=O)CSc2nc3ccccc3s2)sc(C)c1C,12.3
13,O=C(NC(=S)Nc1ccc(F)c(Cl)c1)C1CC1,0.933
14,O=C(NC(c1ccccc1)c1ccccc1)c1ccc(Br)o1,8.44
15,CCCCN1CCC(COC(=O)c2cc(Cl)c(N)c3c2OCCO3)CC1.Cl,-23.9
16,CCn1c(SCC(=O)c2ccccc2)nc2c(c1=O)SC(C)C2 (stereo not shown),-1.19
17,COc1ccc(C2Nc3ccccc3NC3=C2C(=O)CC(C)(C)C3)cc1O (stereo not shown),9.77
18,Cc1cc(=O)c(C(=O)O)nn1-c1ccccc1[N+](=O)[O-],6.6
19,O=c1cc(-c2ccccc2)c2ccc(O)c(CN3CCCCC3)c2o1,7.06
20,Cc1ccc(S(=O)(=O)Oc2ccc(/C=N/NC(=O)c3cccnc3)cc2)cc1,3.45
21,CCN(CC)CCNc1ccnc2cc(Cl)ccc12,5.14
22,Cc1ccc(Cl)cc1NC(=O)COC(=O)CC1CC2CCC1C2 (stereo not shown),9.36

row,SMILES,"hERG current change (%, negative = inhibition) at 1uM [%]"
1,CC(/C=C1\NC(=S)NC1=O)=C\c1ccccc1,12
2,COc1cc(C(=O)NCCNC(=O)c2ccc(C)nc2)cc(OC)c1OC,12
3,COc1ccc(/C=C/C(=O)N2CCN(C)CC2)cc1OC,16
4,CN(CCc1ccccn1)C(=S)Nc1ccc(Cl)c(Cl)c1,13.2
5,CC1CN(C(=O)Nc2ccc(F)cc2)C2(CCCCCC2)O1 (stereo not shown),6.65
6,Cc1cc(C(=O)Nc2cccnc2)on1,8.81
7,COc1ccc(N2C(=O)c3cccc4c(N(C)CCO)ccc(c34)C2=O)cc1,9.82
8,Cc1ccc(CNC(=O)c2oc3ccc(S(=O)(=O)N4CCC5(CC4)OCCO5)cc3c2C)cc1,8.87
9,N#Cc1ccc(NC(=S)Nc2ccccc2)cc1,5.21
10,Cc1ccc(CSCC(=O)Nc2ccc(F)cc2)cc1,8.03
11,CCOC(=O)/C=C/C(=O)Nc1ccc(S(=O)(=O)N2CCc3ccccc32)cc1,5.66
12,CCOC(=O)CCCNC(=O)c1cncc(O)c1.Cl,0.527
13,CCSc1nc2c(c(=O)[nH]c(=O)n2C)n1C/C=C(/C)Cl,-3.5
14,CC(NC(=O)CCn1ccc2cc(S(=O)(=O)N3CCCC3)ccc21)c1ccccc1 (stereo not shown),16.8
15,CCCCNC(=O)COc1ccccc1[N+](=O)[O-],-3.16
16,Cc1oc(-c2ccc(Cl)cc2)nc1CN1CCC(C(=O)NCc2cccs2)CC1,-30.2
17,COc1ccc(NC(=O)CSc2nc3n[nH]c(C)c3c(=N)n2-c2ccc(Cl)c(C)c2)cc1OC,14.9
18,COc1ccc(C2=NO[C@@H]3C(=O)N(Cc4ccccc4)C(=O)[C@H]23)c(OC)c1,15
19,COC(=O)C1=CN(c2cccc(Cl)c2)C=C(C(=O)OC)C1c1cccc(OC)c1,17.1
20,Cc1ccc(-n2c(SCC(=O)O)nc3sc4c(c3c2=O)CCCC4)cc1,-2.52
21,O=C(CSc1nc2[nH]ncc2c(=O)[nH]1)Nc1ccccc1C(F)(F)F,14.6
22,Cc1cccc(C)c1OCC(=O)N(Cc1ccc(Cl)cc1)C1CCS(=O)(=O)C1 (stereo not shown),9.13
